Reference: publication PMC7144022, “Quinolinecarboxamides Inhibit the Replication of the Bovine Viral Diarrhea Virus by Targeting a Hot Spot for the Inhibition of Pestivirus Replication in the RNA-Dependent RNA Polymerase” (Molecules, 2020)

Experiments:
[1] = test system: TO502-2403res BVDV (F224P); settings: read-out: EC50 (µM) of the Indicated Inhibitor; TO502-2403res F224P; SD in brackets
[2] = test system: TO505-6180res BVDV (F224Y N264D); settings: read-out: EC50 (µM) of the Indicated Inhibitor; TO505-6180res F224Y N264D; SD in brackets
[3] = molecular target: RCs from MDBK cells infected with the TO502-2403res strain (Bovine viral diarrhea virus, UniProt P19711, F3493P); test: Replication complex (RC) assay, TO502-2403res BVDV; assay type: biochemical, bovine viral diarrhea virus (BVDV); settings: RCs isolated 14 h post-infection
Experimental: The replication complex (RC) assay is similar to the one described before. In brief, BVDV-infected MDBK cells were suspended in an ice-cold hypotonic buffer A (10 mM Tris, 10 mM NaCl pH 7.8) and were further disrupted by 50 strokes with a Dounce homogenizer. The disrupted cells were pelleted by centrifugation at 1,000× g for 5 min at 4 °C. The supernatant fraction, containing cytoplasmic material and plasma membranes, was concentrated by high-speed centrifugation at 200,000× g for 20 min at 4 °C. The pellet was resuspended in 120 µL of hypotonic buffer B (10 mM Tris, 10 mM NaCl pH 7.8 and 15% glycerol) and used for an RNA polymerase assay. Replicase reactions were carried out, as described before, with some modifications. The [α-^33P]UTP (3,000 mCi/mmol) was replaced by [α-^33P]CTP (3,000 mCi/mmol). The following incubation, RNA extraction, RNA analysis, and quantification were performed, as previously described.

C[C@@]1(O)[C@H](O)[C@@H](CO)O[C@H]1n1ccc(N)nc1=O [2′-C-Met-Cyt]
EC50 [1]: 14 µM | EC50 [2]: 2.5 ± 0.4 µM

Nc1nc2c(cnn2CCCc2ccc3c(c2)OCO3)c2nc(-c3ccco3)nn12 [LZ37, 7-[3-(1,3-benzodioxol-5-yl)propyl]-2-(2-furyl)-7H-pyrazolo[4,3-e][1,2, 4]triazolo[1,5-c]pyrimidin-5-amine]
EC50 [1]: > 100 µM | EC50 [2]: > 100 µM

O=C(Nc1ccn(-c2ccccc2)n1)c1cc(-c2ccccc2)nc2ccccc12 [TO502-2403, 2-phenyl-N-(1-phenyl-1H-pyrazol-3-yl)-4-Quinolinecarboxamide]
effect on activity of RCs from TO502-2403res infected cells [3]: not susceptible
